In PubChem BioAssay AID624296 (National Center for Advancing Translational Sciences (NCATS), 2012):
About 9,900 (2.8%) of roughly 350,000 compounds were called active. Inconclusive means that the source gave no clear call. Such entries were picked first, then a sample of the others. The call rests on the fitted dose curve; in most records, active means well fitted activation curve with a large enough effect; inconclusive means small, poorly fitted or top-dose-only effect; inactive means no such curve, though single readings can be large or run the other way. Potencies of inconclusive entries are left out as doubtful fits.
Potency means the concentration at half of the fitted maximal effect; tags describe the fitted curve by direction and shape.

Assay: A quantitative high throughput screen for small molecules that induce DNA re-replication in MCF 10a normal breast cells. Further: nearly all actives have a fitted effect of over 50% in size. On activity, positive = re-replication: % of control where 0% means no effect.
Settings: MCF 10A DNA re-replication, Hoechst nuclear intensity, 48 h; activity, positive = re-replication: at 46.1 µM (top of the series)
For `COc1ccc(OC)c(/C=N/NC(=O)C(=O)NCc2cccnc2)c1`, the “activity, positive = re-replication” value was inactive: -1.05%. With `Cc1ccc(Cn2c(=N)n(CC(=O)c3ccccc3)c3ccccc32)cc1` the Potency was inconclusive [activator, partial curve, poor fit]. For `Cc1scc(C(=O)NNC(=S)NCc2ccccc2)c1C`, the Potency was inconclusive [activator, full curve]. For `O=C(Nc1ccc2oc(-c3ccncc3)nc2c1)c1ccc(F)cc1`, the “activity, positive = re-replication” value was inactive: 0.22%. For `COc1ccccc1N1CCN(C(=O)c2coc(=O)c(Br)c2)CC1`, the Potency was inconclusive [activator, single point]. In the case of `CC1=C(C(=O)Nc2ccccn2)C(c2ccc(Cl)cc2)NC(=S)N1` (configuration not stated), the Potency is reported as inconclusive [activator, partial curve, poor fit]. In the case of `CCOC(=O)COc1ccc(S(=O)(=O)N2CCN(c3ccccc3F)CC2)cc1`, the Potency is reported as inconclusive [activator, partial curve, poor fit]. With `NS(=O)(=O)c1ccc(CCNC(=O)NC2(C(F)(F)F)Oc3ccccc3O2)cc1` the Potency was inconclusive [activator, partial curve]. With `CC1(C)CC(=O)C=C(NC2CCCC(O)C2)C1` (configuration not stated) the Potency was inconclusive [activator, full curve, poor fit]. In the case of `O=C(Cc1ccc(-n2c(=O)c3sccc3n(Cc3ccc(F)cc3)c2=O)cc1)NCc1ccco1`, the Potency is reported as inconclusive [activator, single point]. With `CC(C)NC(=O)N1c2ccccc2Sc2ccccc21` the Potency was inconclusive [activator, partial curve, poor fit]. In the case of `COc1ccccc1N1CCN(C(=O)c2cc(=O)c3cc(C)cc(C)c3o2)CC1`, the Potency is reported as inconclusive [activator, full curve, poor fit]. In the case of `COc1ccc(-c2nnn(CC(=O)N(Cc3cccs3)C(C)C(=O)NC3CCCC3)n2)cc1OC` (configuration not stated), the “activity, positive = re-replication” value is reported as inactive: 6.73%. For `Cc1cc2c3c([nH]c2cc1S(=O)(=O)N1CCC2(CC1)OCCO2)CC(C)(C)CC3=O`, the Potency was active: 23.1 µM. For `COc1ccc2oc(C(=O)c3ccccc3)c(NC(=O)CN3CCN(C)CC3)c2c1`, the “activity, positive = re-replication” value was inactive: 4.03%. For `Cc1ccc(CN(C)C(=O)CN2C(=O)NC(c3ccccc3)(c3ccccc3)C2=O)c(C)c1`, the “activity, positive = re-replication” value was inactive: -1.15%. With `C[C@H](CO)N1C[C@H](C)[C@@H](CN(C)Cc2ccc(Oc3ccccc3)cc2)Oc2ccc(NC(=O)Cn3cnnn3)cc2C1=O` the Potency was inconclusive [activator, single point]. With `CC1(C)Cc2c(cnn2-c2ccccc2)C(NC(=O)C2(C(N)=O)CC2)C1` (configuration not stated) the Potency was inconclusive [activator, partial curve, poor fit]. In the case of `CN=C1S/C(=C\c2cccn2-c2cccc(Br)c2)C(=O)N1C`, the “activity, positive = re-replication” value is reported as inactive: -0.256%. For `CC(=O)Nc1ccc(C(=O)OCC(=O)c2ccc(S(=O)(=O)N3CCCCC3)cc2)cc1`, the Potency was inconclusive [activator, single point]. For `COc1ccc(C(=O)N/N=C/c2cc(Br)ccc2O)cc1OC`, the Potency was inconclusive [activator, partial curve, poor fit]. For `CN(C)S(=O)(=O)c1cccc(NC(=O)COC(=O)c2cn(-c3ccccc3)nc2-c2ccccc2)c1`, the Potency was inconclusive [activator, partial curve, poor fit]. With `Clc1ccc(Cn2nnc(-c3ccc(CN4CCOCC4)cc3)n2)cc1` the Potency was inconclusive [activator, single point]. In the case of `COc1cc([N+](=O)[O-])cc(/C=N/NC(=O)c2cncc(Br)c2)c1O`, the Potency is reported as inconclusive [activator, partial curve, poor fit]. For `c1cncc(-c2nc(NCc3ccco3)c3ccccc3n2)c1`, the “activity, positive = re-replication” value was inactive: 3.59%. For `Cc1cc(-c2ccccc2)nc(N/N=C/c2ccccc2)n1`, the “activity, positive = re-replication” value was inactive: 21.3%. With `CCn1c(COc2ccccc2OC)nc2ccccc21` the “activity, positive = re-replication” value was inactive: -0.455%. With `Cc1cccn2c(=O)c3cc(C(=O)NCCN4CCOCC4)c(=N)n(Cc4cccnc4)c3nc12` the Potency was inconclusive [activator, partial curve, poor fit]. For `c1csc(-c2nnc(NC3CCCCC3)c3ccccc23)c1`, the Potency was inconclusive [activator, single point]. For `Cc1ccc(-c2nn(C(C)(C)C)c3ncnc(N)c23)cc1`, the Potency was inconclusive [activator, partial curve, poor fit]. With `CC(C)C(NC(=O)C1CC(=O)N(Cc2ccccc2)C1)c1nc2ccccc2[nH]1` (configuration not stated) the “activity, positive = re-replication” value was inactive: -4.82%. With `Cc1nn(Cc2ccccc2)c(C)c1C(=O)OCC(=O)c1cc(C)n(CC(F)(F)F)c1C` the Potency was active: 13 µM. For `COCCNC(=O)CN(c1ccc(F)cc1)S(=O)(=O)c1ccc2c(c1)OCCO2`, the “activity, positive = re-replication” value was inactive: 3.46%. In the case of `COc1ccc(N2C(=O)C(Cl)=C(Nc3ccc(OC)cc3OC)C2=O)cc1`, the Potency is reported as inconclusive [activator, single point]. For `COC(=O)c1ccc(NC(=O)COc2cccc3c2OC(C)(C)C3)cc1`, the Potency was inconclusive [activator, single point]. In the case of `Cc1cccc(NS(=O)(=O)c2cccc(C(=O)NCC3(N4CCOCC4)CCCCC3)c2)c1`, the Potency is reported as inconclusive [activator, partial curve]. With `Cc1ccc(C)c(OCc2cc(C(=O)NC3CCOC(C)(C)C3)no2)c1` (configuration not stated) the “activity, positive = re-replication” value was inactive: 1.84%. For `COc1ccc(C(=O)Nc2ccccc2C(=O)N/N=C/c2ccc(O)c(OC)c2)cc1`, the Potency was inconclusive [activator, single point]. In the case of `COc1ccc(C(=O)OCC(=O)NCC2CCCO2)cc1S(=O)(=O)N1CCCc2ccccc21` (configuration not stated), the Potency is reported as inconclusive [activator, partial curve, poor fit]. With `O=S(=O)(Nc1ccc(Br)cn1)c1ccc(Cl)s1` the “activity, positive = re-replication” value was inactive: -1.17%. With `COc1cccc(N2CCN(C(=O)CN(c3cc(C)cc(C)c3)S(=O)(=O)c3c(C)noc3C)CC2)c1` the Potency was inconclusive [activator, single point]. For `COc1ccccc1C1=NOC(COC(=O)c2ccc3ccccc3n2)C1` (configuration not stated), the Potency was inconclusive [activator, single point]. For `Cn1c(O)c(/C=C2\C=NN=C2c2ccccc2)sc1=S`, the “activity, positive = re-replication” value was inactive: -3.54%. With `O=C(CC1CCCC1)NNC(=O)c1ccc(F)cc1` the “activity, positive = re-replication” value was inactive: 17.8%. With `CCCCCc1ccc(-c2nnc(N)s2)cc1` the Potency was inconclusive [activator, full curve]. In the case of `Cn1c(/C(C#N)=C(\O)COc2ccc3ccccc3c2)nc2ccccc21`, the Potency is reported as inconclusive [activator, full curve, poor fit]. For `CCCc1nn(-c2ccccc2)c2c1C(c1cccs1)C(C#N)=C(N)O2` (configuration not stated), the “activity, positive = re-replication” value was inactive: -7.39%. In the case of `CCOC(=O)N1CCC(n2c(SCC(=O)NCCC3=CCCCC3)nc3ccccc3c2=O)CC1`, the Potency is reported as active: 25.9 µM. For `O=C(CNC(=O)c1sc2ccccc2c1Cl)NCc1cccc(C(F)(F)F)c1`, the Potency was inconclusive [activator, single point]. With `c1ccc(-c2nnc3sc(-c4cc5ccccc5o4)nn23)cc1` the Potency was active: 18.4 µM. For `Cc1cc(C(F)(F)F)n2[nH]c(=O)c(N=Nc3ccccc3)c2n1`, the Potency was inconclusive [activator, single point]. In the case of `CCOc1ccccc1CNC(=O)C1CCN(c2nc3ccccc3o2)CC1`, the “activity, positive = re-replication” value is reported as inactive: 1.91%. In the case of `Cn1cnnc1SCC(=O)Nc1ccc2nc(SCc3ccccc3Cl)sc2c1`, the Potency is reported as inconclusive [activator, partial curve, poor fit]. For `CCOc1ccc(CN(C)CC(=O)NCc2ccc(F)cc2)cc1`, the Potency was inconclusive [activator, single point]. For `COc1ccc(CNCc2ccc(C(F)(F)F)cc2)cc1OC`, the Potency was inconclusive [activator, full curve, poor fit]. In the case of `COc1ccc(-c2nnc(COc3ccc4ccccc4c3)o2)cc1OC`, the Potency is reported as inconclusive [activator, partial curve, poor fit]. In the case of `COc1ccc(CN(C(=S)Nc2ccccc2)C2CC(=O)N(c3ccc(F)cc3)C2=O)cc1` (configuration not stated), the Potency is reported as inconclusive [activator, partial curve, poor fit]. For `CC(=O)c1ccc(N2CCN(C(=S)Nc3ccc(Oc4ccccc4)cc3)CC2)cc1`, the Potency was inconclusive [activator, single point]. For `COc1cccc(COC(=O)CCNC(=O)c2ccc(Br)cc2)c1OC`, the “activity, positive = re-replication” value was inactive: 1.36%. For `CO/N=C\c1cc(C(=O)c2ccc(Cl)cc2Cl)cn1C`, the Potency was inconclusive [activator, single point]. With `CCOC(=O)c1sc(=N)n(-c2ccc(OC)cc2)c1C` the “activity, positive = re-replication” value was inactive: 12%. In the case of `CCNC(=O)C1CC(=O)N(Cc2ccc(F)cc2)C(=Nc2ccc(OC)cc2)S1` (configuration not stated), the Potency is reported as inconclusive [activator, partial curve, poor fit]. In the case of `CCN(CC)C(=O)c1c2c(nc3ccccc13)-c1ccccc1CC2`, the Potency is reported as inconclusive [activator, partial curve, poor fit]. With `Oc1ccccc1N1CCN(c2ncnc3sc(-c4ccccc4)cc23)CC1` the Potency was inconclusive [activator, single point]. In the case of `COc1ccc(CN2CCN(Cc3ccccc3)C(CCO)C2)cc1OC` (configuration not stated), the “activity, positive = re-replication” value is reported as inactive: 5.4%. For `Cc1ccc(C(=O)NNC(=O)c2cc(C)nc3ccccc23)cc1`, the “activity, positive = re-replication” value was inactive: -2.34%. In the case of `CCCC(=O)O[C@]1(C(=O)CCl)[C@@H](C)C[C@H]2[C@@H]3CCC4=CC(=O)C=C[C@]4(C)[C@@]3(F)C(=O)C[C@@]21C`, the Potency is reported as inconclusive [activator, partial curve].
